# Reference: PMC4336329 (PLoS ONE, 2015)
# About 2,200 (0.71%) of roughly 310,000 compounds showed an effect of 50% or more. Effects have a minus sign here. Some of the results follow.
# Biological target: human ether-à-go-go-related gene (hERG) potassium channel (human, UniProt Q12809)
# Assay: primary screen, population patch clamp on CHO cells stably expressing hERG
# human ether-à-go-go-related gene (hERG) potassium channel, sequence (Q12809 whole entry, looked up): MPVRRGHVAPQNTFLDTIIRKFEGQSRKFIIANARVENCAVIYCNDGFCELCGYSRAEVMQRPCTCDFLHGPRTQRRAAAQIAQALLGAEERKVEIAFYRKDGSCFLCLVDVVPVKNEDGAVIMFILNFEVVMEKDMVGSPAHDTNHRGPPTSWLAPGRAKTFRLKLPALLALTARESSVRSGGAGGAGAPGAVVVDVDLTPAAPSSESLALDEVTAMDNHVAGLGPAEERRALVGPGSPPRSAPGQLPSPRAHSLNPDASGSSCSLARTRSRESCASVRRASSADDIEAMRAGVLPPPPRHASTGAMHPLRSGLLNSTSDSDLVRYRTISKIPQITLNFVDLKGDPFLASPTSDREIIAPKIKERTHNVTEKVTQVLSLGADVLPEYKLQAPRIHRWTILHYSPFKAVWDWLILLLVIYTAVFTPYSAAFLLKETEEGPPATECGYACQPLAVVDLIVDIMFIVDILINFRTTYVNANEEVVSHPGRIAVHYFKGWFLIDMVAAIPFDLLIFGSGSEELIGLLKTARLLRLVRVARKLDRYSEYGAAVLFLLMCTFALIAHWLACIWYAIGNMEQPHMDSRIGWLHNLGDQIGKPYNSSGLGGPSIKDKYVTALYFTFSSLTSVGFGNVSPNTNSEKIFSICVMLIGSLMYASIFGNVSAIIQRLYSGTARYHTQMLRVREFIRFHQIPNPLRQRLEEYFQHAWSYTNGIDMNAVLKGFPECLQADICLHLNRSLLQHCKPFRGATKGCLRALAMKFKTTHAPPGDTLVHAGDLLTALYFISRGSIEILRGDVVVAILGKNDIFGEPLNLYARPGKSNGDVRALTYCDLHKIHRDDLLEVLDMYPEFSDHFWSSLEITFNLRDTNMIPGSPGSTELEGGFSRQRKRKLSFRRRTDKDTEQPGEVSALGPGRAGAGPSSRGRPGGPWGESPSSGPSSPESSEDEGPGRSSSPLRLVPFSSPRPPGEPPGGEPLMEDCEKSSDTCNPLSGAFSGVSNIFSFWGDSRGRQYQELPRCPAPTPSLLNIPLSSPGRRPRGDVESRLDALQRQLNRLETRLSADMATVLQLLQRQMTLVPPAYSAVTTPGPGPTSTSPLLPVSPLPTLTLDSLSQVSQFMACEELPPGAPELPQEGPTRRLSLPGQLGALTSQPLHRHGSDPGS
row,SMILES,"hERG current change (%, negative = inhibition) at 1uM [%]"
1,O=C(NCC(=O)N(c1ccccc1)C(C(=O)NC1CCCC1)c1cccnc1)c1cccs1 (stereo not shown),8.91
2,COc1ccc(-c2csc(NCCc3nc4cc(C(=O)NCCCO)ccc4n3Cc3ccc(C)cc3)n2)cc1,12.3
3,N#CCSc1nnc2ccc3ccccc3n12,5.14
4,Cl.N=C(N)SCc1ccccc1Cl,21.8
5,O=S(=O)(c1ccc(F)cc1)N1CCN(C(=S)NCC2CCCO2)CC1 (stereo not shown),-3.72
6,COc1ccc(/C=N/NC(=O)c2sc3nc(C)cc(C)c3c2N)cc1,14.9
7,CS(=O)(=O)c1ccc2nc(NC(=O)CN3CCN(Cc4ccccc4)CC3)sc2c1,2.22
8,CCC(CC)C(=O)NC12CC3CC(CC(C3)C1)C2,9.3
9,Fc1ccccc1-c1cc2ncccc2cn1,10.8
10,CCC1CCCCN1C(=O)c1cccc(S(=O)(=O)Nc2cc(C(F)(F)F)ccc2Cl)c1 (stereo not shown),5.63
11,CC(OC(=O)c1ccccc1NCCO)C(=O)NCC(=O)Nc1ccc(F)c(F)c1F (stereo not shown),8.93
12,COc1ccc(Cl)cc1NC(=O)COc1cccc(-n2cnnn2)c1,11.3
13,Cc1cccc(S(=O)(=O)CC(=O)Nc2nc(-c3ccccc3)cs2)c1,3.09
14,CC(C)(CO)Nc1ccc([N+](=O)[O-])cc1[N+](=O)[O-],-4.99
15,Cn1c(Cn2nnc3ccccc32)nnc1SCC(=O)N1c2ccccc2Sc2ccccc21,-1.26
16,CCNc1ccc(C2(O)C(=O)c3ccccc3C2=O)cc1,8.01
17,O=C1CCC/C(=N\NC(=O)c2ccc(CSc3cccc4cccnc34)cc2)C1,14.8
18,CCN(C(=O)c1cc(S(=O)(=O)N2CCCCC2)c[nH]1)c1ccc(OC)cc1,6.02
19,NNC(=O)c1nc(Cl)c(Cl)c(N)c1Cl,11.6
20,O=C(COc1ccccc1[N+](=O)[O-])OCC(=O)N1CCC(Cc2ccccc2)CC1,14.2
21,N#Cc1c(N2CCSCC2)nsc1-c1ccccc1Cl,10.3
22,O=C(c1cccc(F)c1)N(Cc1nc2ccccc2c(=O)[nH]1)C1CCCC1,5.34
23,CC(C)(C)C(=O)COc1ccccc1[N+](=O)[O-],11.1
24,COc1nc(OC)nc(Oc2ccc([N+](=O)[O-])cc2Cl)n1,13.7
25,O=C1Nc2ccccc2/C1=C\c1cccn1-c1ccc(OC(F)(F)F)cc1,10.1
26,Cc1nnc(SCC(=O)N2CCc3ccccc3C2)n1-c1ccccc1,-7.02
27,O=c1[nH]c(=S)n(Cc2ccc(F)cc2)c(O)c1C=NCc1ccc2c(c1)OCO2,17.2
28,O=c1[nH]c(=O)n(-c2cccc3ccccc23)c(O)c1/C=N/N1CCCCC1c1cccnc1 (stereo not shown),15

row,SMILES,"hERG current change (%, negative = inhibition) at 1uM [%]"
1,COc1cccc(CSc2nnc(CSc3nc4nc(C)cc(C)n4n3)s2)c1,-6.11
2,Cc1ccc(C(=O)NNC(=O)c2csc(N3CCOCC3)n2)s1,-4.52
3,C[C@H]1NC(=O)[C@@]2(C)[C@@H](c3ccccc3)[C@H]3COc4ccccc4[C@H]3N2C1=O,9.35
4,CCC(C)(C)NC(=O)C(c1ccc(C)cc1)N(CC1CCCO1)C(=O)CNC(=O)c1cccs1 (stereo not shown),9.18
5,Cn1c(SCC(=O)NCCc2ccc(S(N)(=O)=O)cc2)nc2ccccc2c1=O,6.42
6,CCCn1c(SCC(=O)NC2CCCCC2)nnc1-c1ccco1,7
7,CCn1c(SCC(=O)Nc2cc(C(C)(C)C)nn2-c2ccccc2)nnc1-c1cccs1,0.593
8,Cn1c(CCNC(=O)C2CCCCC2)nc2cc([N+](=O)[O-])ccc21,-23
9,O=c1[nH]c(-c2ccccc2O)nc2c1CCCC2,10.7
10,O=C(COC(=O)c1ccc(O)cc1)Nc1cc(S(=O)(=O)N2CCOCC2)ccc1Cl,5.85
11,CC1CCCCN1S(=O)(=O)c1ccccc1[N+](=O)[O-] (stereo not shown),22.5
12,COc1ccc(CCNC(=O)CNC(=O)c2nn(-c3ccc(OC)c(OC)c3)c(=O)c3ccccc23)cc1OC,8.54
13,O=C(c1cc(-c2cccs2)nc2ccccc12)N1CCN(S(=O)(=O)c2ccccc2)CC1,-9.43
14,COc1ccc(CC(=O)OCC(=O)NCc2ccc(Cl)cc2)cc1,16.4
15,COc1ccc(CCN2CC(C(=O)NCc3nc4ccccc4n3C)CCC2=O)cc1 (stereo not shown),5.67
16,COCCCNC1CS(=O)(=O)CC1O.Cl (stereo not shown),20.5
17,CC(C)[C@H](NC(=O)N1c2ccccc2NC(=O)[C@@H]1C(C)C)C(=O)N[C@@H](Cc1ccccc1)C(=O)O,14.1
18,CCOC(=O)c1ccccc1NC(=O)Cc1ccccc1OC,5.07
19,CN1CCN(S(=O)(=O)c2ccc(NC(=O)c3csc4ccccc34)cc2)CC1,-2.14
20,CN(c1ccccc1)S(=O)(=O)c1cccc(NC(=O)C2CC(=O)N(Cc3ccccc3)C2)c1 (stereo not shown),-3.33
21,Cc1ccc(-n2ncc3c(SCC(=O)NNC(=O)c4ccco4)ncnc32)cc1,12.1
22,COCCNc1nnc(SCC(=O)NNC(=O)c2ccccc2)s1,16.3
23,Cc1ccc(C(=O)NCCS(=O)(=O)N2CCN(c3ccccc3F)CC2)cc1[N+](=O)[O-],20
24,C/C(CC(=O)NCc1ccc(F)cc1)=N\NC(N)=S,11.6
25,OC(COc1ccc2c(c1)OCO2)CN1CCCCC1 (stereo not shown),13.8
26,Cc1ccc(S(=O)(=O)N2CCCC2CO)cc1 (stereo not shown),9.64
27,O=C(NCc1nnc(SCC(=O)N2CCc3ccccc32)o1)c1cccs1,0.714
